# Assay results published in the supplement of paper PMC12217912.
# The list shows a part of the results. Sequences were assembled here from the parent chain. Inactive controls read about 0.05.
# B1: TEV protease; numbered along this chain (parent)
# chain: MGESLFKGPRDYNPISSSICHLTNESDGHTTSLYGIGFGPFIITNKHLFRRNNGTLVVQSLHGVFKVKDTTTLQQHLVDGRDMIIIRMPKDFPPFPQKLKFREPQREERICLVTTNFQTKSMSSMVSDTSCTFPSGDGIFWKHWIQTKDGQCGSPLVSTRDGFIVGIHSASNFTNTNNYFTSVPKNFMELLTNQEAQQWVSGWRLNADSVLWGGHKVFMVKPEEPFQPVKEATQL
# Variants of: B1
# Assay: raw area under fraction-flipped curve 0-4 h after induction (AUC4h, not background-subtracted), DNA-recorder readout of cleavage of the substrate (dimensionless); higher = more cleavage of the substrate by the protease variant
# Conditions: temperature: 34 °C; time window: 0-4 h after rhamnose induction
# Experimental: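 In vivo DNA recorder in E. coli TOP10(DE3) ΔrhaA at 34 °C. Each TEVp single-site mutant (parent TEVp 0) is paired with a single-site variant of the 7-mer TEVs (canonical ENLYFQ|S). The substrate sits between flexible linkers in a Bxb1-sfGFP-TEVs-SsrA fusion, so cleavage stabilises Bxb1 and speeds flipping of a recombination array, read by NGS. The value is the raw area under the fraction-flipped curve over 0-4 h after rhamnose induction (AUC4h), with ≥20 reads per time point. It is not background-subtracted; inactive controls average about 0.047.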
# 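Further: Bxb1 expression induced with 0.2% (w/v) L-rhamnose at OD600 near 0.5, cultures sampled hourly, flipped fraction per protease–substrate barcode pair counted by paired-end Illumina sequencing.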
Variant,area with substrate ENLYFCS,area with substrate ENLYFFS,area with substrate ENLYFKS,area with substrate ENLYFLS,area with substrate ENLYFNS,area with substrate ENLYFPS,area with substrate ENLYFRS,area with substrate ENLYFSS,area with substrate ENLYFTS,area with substrate ENLYFVS,area with substrate ENLYFDS,area with substrate ENLYFES,area with substrate ENLYFHS,area with substrate ENLYFIS,area with substrate ENLYFMS,area with substrate ENLYFYS,area with substrate ENLYFGS,area with substrate ENLYFWS
T44V,0.0589,0.0508,0.0541,0.0405,0.066,0.0485,0.0746,0.0656,0.0604,0.047,–,–,–,–,–,–,–,–
F6R,0.0589,–,0.0735,–,–,0.0559,0.0554,–,0.0558,–,0.0453,0.046,0.0615,0.0497,0.0684,0.0589,–,–
T129Y,0.0673,0.0514,–,0.0553,0.0644,0.0568,0.0528,0.0499,0.0598,0.0662,–,0.0534,0.0535,0.0519,0.0664,0.0509,0.049,0.0855
T70V,0.0545,0.0699,–,0.0579,0.0562,0.0552,0.062,0.0588,0.0588,0.0701,0.0559,0.0842,–,0.0541,0.0607,–,–,–
T70M,0.0413,0.0661,–,–,0.0696,0.0646,–,–,0.0714,0.0794,–,0.0632,0.0566,0.0543,0.058,–,–,0.0565
N186Q,–,–,0.0677,–,–,0.058,–,–,0.0539,–,0.0601,0.0639,–,0.0462,–,–,0.0666,–
N186I,0.0557,–,–,0.0497,–,–,–,–,–,–,0.0576,–,–,–,0.0668,0.0475,–,–
F65S,0.0542,0.0669,–,0.0719,0.0597,0.0382,0.0501,–,0.059,–,–,0.0634,0.0492,0.0532,0.0572,–,–,0.0639
F65Y,0.0623,0.0976,–,0.103,0.063,0.0662,0.0647,0.0733,0.0361,0.0468,0.0365,0.0651,–,0.0662,0.0701,–,0.0366,–
Q97F,0.0588,–,–,0.0659,–,–,–,0.0544,–,–,–,–,–,–,0.0615,–,0.0616,–
A196R,0.0515,–,–,–,–,–,–,–,0.0566,–,–,–,–,–,0.0769,0.0564,–,–
Q75T,0.0664,0.0698,–,0.0666,0.0688,0.0444,0.0452,0.0646,0.06,–,–,0.0626,0.0704,0.0563,0.0695,–,–,–
V58Q,–,–,–,–,–,0.0521,–,–,–,–,0.0527,–,0.0418,–,–,–,–,0.048
D161E,0.0594,0.063,0.053,0.0732,0.0606,0.0467,0.0563,0.0564,0.0556,0.0473,0.0642,0.0518,0.056,0.0528,0.0675,0.0467,–,0.0504
R87G,0.0662,–,0.0598,–,–,–,0.0689,–,–,–,–,–,–,0.083,–,0.0248,–,–
T31L,0.0541,0.0677,0.0654,–,–,0.0467,–,0.0565,–,–,0.0663,–,0.0565,0.0668,0.0531,0.058,–,0.0592
K221H,0.0598,0.0683,0.0539,–,0.0686,0.0631,0.0647,0.0617,0.0514,0.0573,0.0714,0.0608,0.0503,0.0643,0.0631,0.0562,0.0584,0.052

Variant,area with substrate ENLYFCS,area with substrate ENLYFFS,area with substrate ENLYFKS,area with substrate ENLYFLS,area with substrate ENLYFNS,area with substrate ENLYFPS,area with substrate ENLYFRS,area with substrate ENLYFSS,area with substrate ENLYFTS,area with substrate ENLYFVS,area with substrate ENLYFDS,area with substrate ENLYFES,area with substrate ENLYFHS,area with substrate ENLYFIS,area with substrate ENLYFMS,area with substrate ENLYFYS,area with substrate ENLYFGS,area with substrate ENLYFWS
I145H,0.067,0.0687,0.059,–,–,0.058,0.0519,0.0504,0.057,–,0.0637,0.0482,–,0.0551,–,–,0.04,0.0601
I164K,0.0666,–,–,–,0.0538,–,–,–,0.0544,–,–,–,–,–,–,–,–,0.0493
W199M,0.0538,0.0746,–,–,0.0592,0.0617,0.0559,0.0518,0.0389,0.0447,0.0604,–,0.0373,0.0604,0.0579,0.0582,0.061,0.0689
I139E,0.0755,0.0811,0.0599,–,–,0.0494,0.0561,–,–,0.0548,0.0566,0.0709,–,0.0567,–,–,–,0.0601
L211K,0.0574,–,–,0.0635,0.0528,0.0542,–,–,0.0684,–,–,0.0627,–,0.0507,–,0.0499,0.087,0.0572
L211S,–,–,0.0422,–,–,0.0742,–,–,–,–,0.0571,–,–,–,0.0701,0.0552,–,–
V126S,0.0453,0.0653,0.0672,0.0512,0.0735,0.0673,0.0622,–,0.054,–,0.0667,0.0409,0.0712,0.0521,0.0603,0.0584,–,0.0498
N172K,0.0734,0.0651,–,–,0.0604,0.0563,–,–,0.0669,–,–,0.0735,–,0.0391,–,0.0505,–,–
F187T,0.0521,–,0.057,–,0.0528,–,–,0.0515,–,–,–,0.0599,–,–,0.0593,0.059,–,–
T147L,0.0597,0.0754,0.062,0.0594,0.0972,0.056,0.0556,–,0.0647,0.0551,0.0576,0.0429,0.0537,0.0516,0.0548,0.057,0.0572,0.0497
F218D,0.0594,0.0694,0.0926,–,–,–,0.0513,–,0.0625,0.055,–,0.052,–,0.0648,0.0693,–,0.061,–
Q234M,0.0645,0.0639,–,0.0574,0.0714,0.0578,0.0642,–,0.0796,0.0574,–,0.0574,–,0.0592,0.0264,–,0.0569,–
V220T,–,–,–,–,0.0787,–,–,0.0496,0.0561,–,0.0568,0.0593,–,–,–,–,–,–
S135Q,0.0282,0.0644,0.0686,–,0.0812,0.0558,0.0505,0.0508,0.0589,–,–,0.0509,0.065,0.0596,0.0633,–,–,0.0612
F163T,0.0639,0.0624,0.0723,0.0594,0.0854,0.0553,0.0557,–,–,–,0.059,0.0618,–,0.0643,–,0.0648,–,–
A170M,0.061,–,0.0656,–,–,0.0723,0.065,0.0608,–,–,–,0.0741,–,–,0.0587,–,–,–
